Data reported in PubChem BioAssay AID686978 (National Center for Advancing Translational Sciences (NCATS), 2013).
Values joined by “and” are separate entries in the source; they are usually repeats but may differ in a detail not shown here. Equal values may be shown once. The campaign covered roughly 420,000 compounds. About 64,000 (15%) were called active. Inconclusive means that the source gave no clear call. Such entries were picked first, then a sample of the others. Calls come from the whole dose curve; as a rule, active = well fitted inhibition curve with a large enough effect; inconclusive = small, poorly fitted or top-dose-only effect; inactive = flat fitted curve, though single readings scatter. Potencies of inconclusive entries are left out as doubtful fits.

experiment: qHTS for Inhibitors of human tyrosyl-DNA phosphodiesterase 1 (TDP1): qHTS in cells in absence of CPT; conditions: DT40 Tdp1-/- hTDP1 cells, no CPT, ATP luminescence, 48 h; activity change, negative = growth inhibition: at 46.2 µM (top of the series) unless noted; note: nearly all actives have a fitted effect of over 55% in size
In short: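 Compound effects on proliferation are scored in DT40 Tdp1-/-;hTDP1 cells in the absence of CPT. ATP levels (CellTiter-Glo luminescence) are recorded after a ≥48 hr, 37 °C incubation.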
% is set by controls: 0 for no effect and ±100 for the full control effect; potency is the fitted concentration of half-maximal effect; tags give direction and shape of the fitted curve.

Row | SMILES | activity change, negative = growth inhibition | Potency
1 | Cc1ccc(-n2nc(C)c3c(C)onc3c2=O)cc1 | inconclusive: -30.5% [inhibitor] | –
2 | COc1ccc(CSc2nnnn2-c2ccc(O)cc2)cc1F | – | inconclusive [inhibitor, single point]
3 | Cc1ccc(NC(=O)C2CCCN(S(=O)(=O)c3cnc[nH]3)C2)cc1F (stereo not given) | inconclusive: -31.8% [inhibitor] | –
4 | O=C(CSc1nnnn1-c1ccccc1)N1CCc2ccccc21 | inactive: -6.43% | –
5 | Cc1ccc(C(=O)Nc2ccc3c(c2)OCO3)cc1 | inactive: -29.4% | –
6 | O=S(=O)(c1ccc(Cl)c(Cl)c1)N1CCc2nc3ccccc3n2CC1 | inconclusive: -33.2% [inhibitor] | –
7 | CCc1cccc(C)c1Nc1nn2c(=O)c3ccccc3nc2s1 | – | active: 23.1 µM
8 | CCCn1c(N)c(C(=O)CSc2nnc(-c3ccco3)n2Cc2ccccc2)c(=O)[nH]c1=O | – | inconclusive [inhibitor, partial curve]
9 | O=C(NC1CC1)c1cc(-c2ccc(Br)cc2)nc2ccccc12 | – | active: 14.6 µM
10 | C#CCN1CC(C)/C(=N/O)CC1C (stereo not given) | inactive: -36% | –
11 | Cc1ccccc1C(=O)NC1CCN(Cc2nnnn2Cc2ccccc2)CC1 | – | inconclusive [inhibitor, single point]
12 | CCC(C)[C@H]1CNCCN1CCCc1cc(OC)c(OC)c(OC)c1 (stereo not given in full) | inactive: 3.19% | –
13 | O=[N+]([O-])c1ccc(NCc2ccccc2N2CCC(CO)CC2)nc1 | – | inconclusive [inhibitor, single point]
14 | CC(C)(C)c1ccc(/C=C/C(=O)NC2=NCCS2)cc1 | – | inconclusive [inhibitor, single point]
15 | COc1cccc(C(=O)Nc2cccc(C(=O)NC3=NN(c4c(Cl)cc(Cl)cc4Cl)C(=O)C3)c2)c1 | inactive: -10.9% | –
16 | COc1ccc(OC)c(S(=O)(=O)N2CCC(c3nc4ccccc4[nH]3)CC2)c1 | – | inconclusive [inhibitor, single point]
17 | CN(C)CCOC(=O)C1(c2ccccc2)CCCC1 | inactive: -27.2% | –
18 | Cc1nn(Cc2ccc(Cl)cc2)c(C)c1NC(=O)Cn1nc([N+](=O)[O-])c(Cl)c1C | inconclusive: -32.9% [inhibitor] | –
19 | O=C(Nc1cccc(C(F)(F)F)c1)c1cccnc1N1CCN(CCO)CC1 | inactive: -19.2% | –
20 | O=C(CSc1ccc(-c2ccccc2)nn1)Nc1ccc2c(c1)OCCO2 | inconclusive: -36.6% [inhibitor] | –
21 | Cn1cccc1C(=O)N1CCC2(CC1)CN(c1ccncc1)C2 | – | inconclusive [inhibitor, single point]
22 | Cc1cccc(OCCNC(=O)c2cncc(Br)c2)c1 | – | inconclusive [inhibitor, single point]
23 | O=C(CSc1nncn1-c1cccnc1)Nc1cccc(C(F)(F)F)c1 | – | inconclusive [inhibitor, partial curve]
24 | Cc1cc(=O)n2nc(N3CCC(C(=O)Nc4ccc(Br)c(C)c4)CC3)sc2n1 | inactive: -28.7% | –

Row | SMILES | activity change, negative = growth inhibition | Potency
25 | CCOc1ccccc1C(=O)NCc1ccc2c(c1)CCN2C(=O)c1ccc(F)cc1 | – | inconclusive [inhibitor, single point]
26 | Cc1ccc(N(Cc2cccs2)C(=O)c2ccc(OC(C)C)cc2)cc1 | – | inconclusive [inhibitor, single point]
27 | COc1ccc2c(CNC3CCC(C)CC3)c(C(=O)O)n(Cc3ccc(F)cc3)c2c1 (stereo not given) | – | active: 16.4 µM
28 | Cn1c(SCc2ccc(F)cc2)nc2ccc(C(=O)NCc3cccc(Cl)c3)cc21 | – | inconclusive [inhibitor, single point]
29 | Cc1ccn2c(=O)c(NC(=O)c3cccs3)c(C)nc2c1 | inactive: 1.4% | –
30 | Cc1ccc(N(C)S(=O)(=O)c2cccc(C(=O)NCC(c3cccs3)N3CCOCC3)c2)cc1 (stereo not given) | – | inconclusive [inhibitor, single point]
31 | CS(=O)(=O)N1CCN(c2ccccc2NC(=O)c2ccc3ccccc3c2)CC1 | – | inconclusive [inhibitor, single point]
32 | COc1cc(/C=N/Nc2ccc([N+](=O)[O-])cc2S(=O)(=O)N2CCOCC2)cc(OC)c1OC | – | inconclusive [inhibitor, single point]
33 | CC(C)=CCC/C(C)=C/CC/C(C)=C/CC/C(C)=C/CC/C(C)=C/CC/C(C)=C/CC/C(C)=C/CC/C(C)=C/CC/C(C)=C/CO | inactive: -5.84% | –
34 | CC(=O)Cc1nsc(NC(=O)c2ccco2)n1 | – | inconclusive [inhibitor, single point]
35 | COC(=O)CN(c1cccc(C(C)=O)c1)S(C)(=O)=O | inactive: -7.62% | –
36 | CCOC(=O)c1ccc(NC(=O)CC2OCCN(CC)C2=O)cc1 (stereo not given) | – | active: 13 µM
37 | CCOC(=O)Cc1cc(=O)[nH]n(-c2ccccc2)c1=O | inactive: 6.91% | –
38 | Cc1ccc(-c2[nH]ncc2CNC(C)c2ccccc2)cc1 (stereo not given) | – | inconclusive [inhibitor, single point]
39 | Cc1ccc(C(=O)NCCc2csc(-c3cccc(F)c3)n2)cc1C | inactive: -19.1% | –
40 | CCOC(=O)c1ccccc1NC(=O)CSc1ccc(-c2sc(C)nc2C)nn1 | – | active: 11.6 µM
41 | COc1ccc(-c2noc(CN(C(=O)c3ccc(C)cc3C)C(C)C)n2)cc1 | – | active: 14.6 µM
42 | O=C(CN1C2CCCC1CC(NC(=O)C1CCCCC1)C2)NCc1ccc(F)cc1 (stereo not given) | – | active: 16.4 µM
43 | CCN(CC(=O)Nc1ccc(NC(C)=O)cc1)C(=O)c1cc([N+](=O)[O-])ccc1Sc1ccc(Cl)cc1 | – | inconclusive [inhibitor, single point]
44 | CCOC(=O)c1cnc2c(ccc3ccccc32)c1Nc1ccccc1O | – | inconclusive [inhibitor, single point]
45 | CCOC(=O)c1cccc(NC(=O)COc2ccc3c(C)cc(=O)oc3c2)c1 | inactive: 4.72% | –
46 | Cc1occc1C(=O)NCCCc1ccccc1 | inactive: -8.08% | –
47 | C=C1CCC[C@]2(C)C[C@H]3OC(=O)C(CNC(C)CCCC(C)C)[C@H]3CC12 (stereo not given in full) | – | active: 20.6 µM
48 | CCC(C)[C@H]1O[C@]2(C=C[C@@H]1C)C[C@@H]1C[C@@H](C/C=C(\C)[C@@H](O[C@H]3C[C@H](OC)[C@@H](O[C@H]4C[C@H](OC)[C@H](NC(C)=O)[C@H](C)O4)[C@H](C)O3)[C@@H](C)/C=C/C=C3\CO[C@@H]4[C@H](O)C(C)=C[C@@H](C(=O)O1)[C@]34O)O2 (stereo not given in full) | – | active: 1.06 µM and active: 2.66 µM

Row | SMILES | activity change, negative = growth inhibition | Potency
49 | Cc1cc(C)c2cc(CN(Cc3ccc4c(c3)OCO4)Cc3nnnn3Cc3ccco3)c(=O)[nH]c2c1 | – | inconclusive [inhibitor, partial curve, poor fit]
50 | COc1cc2nc(NCCc3cccc(C)c3)n3nc(-c4ccccc4)nc3c2cc1OC | – | inconclusive [inhibitor, partial curve]
51 | COc1ccc(C2CC(=O)Nc3c2c(C)nn3-c2nncc(-c3ccccc3)n2)c(OC)c1OC (stereo not given) | – | inconclusive [inhibitor, partial curve]
52 | CCc1cc(CNC(=O)c2cccc(OC3CCN(S(C)(=O)=O)CC3)c2)on1 | – | inconclusive [inhibitor, partial curve, poor fit]
53 | Cc1[nH]n(-c2ccccc2)c(=O)c1N=Nc1c(O)cc(S(=O)(=O)N(C)C)c2ccccc12 | – | active: 6.51 µM
54 | CCOc1ccccc1C(=O)Nc1cccc(-c2nc3ccccc3s2)c1 | – | active: 5.17 µM
55 | Cc1ccnc(Sc2ccc([N+](=O)[O-])cc2[N+](=O)[O-])n1 | – | active: 0.58 µM
56 | COc1cccc(CN2CCN(CC(=O)Nc3ccccc3Cl)CC2)c1 | – | active: 16.4 µM
57 | CCC(=O)N1CCCc2cc(S(=O)(=O)N3CCC(C(=O)NC4CCC(C)CC4)CC3)ccc21 (stereo not given) | – | inconclusive [inhibitor, single point]
58 | CCSc1cc(N2CCCC2)nc(-c2ccc(F)cc2)n1 | inconclusive: -26.9% [inhibitor] | –
59 | COc1ccc(S(=O)(=O)Nc2ccc3c(c2)C(=O)N([C@@H](C)CO)C[C@@H](C)[C@H](CN(C)S(=O)(=O)c2ccc(F)cc2)OCCCC[C@H](C)O3)cc1 | – | inconclusive [inhibitor, single point]
60 | COc1ccc(-n2c(CCc3ccccc3)nnc2SCC(=O)NCc2ccccc2)cc1 | – | inconclusive [inhibitor, partial curve]
61 | c1ccc(Nc2ccc3c4c(cccc24)CC3)cc1 | inactive: -30.3% | –
62 | O=c1cnc2cnc(Oc3ccccc3)nc2n1Cc1cccs1 | – | inconclusive [inhibitor, partial curve]
63 | Cc1ccc(C)c(NC(=O)c2cnc(N3CCCC3)nc2C)c1 | – | inconclusive [inhibitor, single point]
64 | COc1cc(C2c3c(oc4c(C)cc(C)cc4c3=O)C(=O)N2Cc2cccnc2)ccc1O (stereo not given) | – | inconclusive [inhibitor, single point]
65 | O=C(OCc1cc(=O)n2nc(C3CC3)sc2n1)c1cccc(NC(=O)c2ccccc2Cl)c1 | – | active: 20.6 µM
66 | Cc1cc(C)c2c(=O)[nH][nH]c2n1 | inactive: -26.6% | –
67 | CC(=O)Nc1ccc(C(=O)OCc2ccc(F)cc2Cl)cc1 | – | inconclusive [inhibitor, single point]
68 | NS(=O)(=O)c1ccc(CCNC(=O)COC(=O)c2ccc([N+](=O)[O-])o2)cc1 | inactive: -20.6% | –
69 | Cc1cccc(-c2nc(=S)c3c(n2Cc2ccco2)CCCC3)c1 | – | inconclusive [inhibitor, single point]
70 | COc1ccccc1/C=C/c1nc(C#N)c(NCc2ccccc2)o1 | – | inconclusive [inhibitor, single point]
